# Measured values reported in PubChem BioAssay AID1347120 (National Center for Advancing Translational Sciences (NCATS), 2019).
# The campaign covered roughly 390,000 compounds. About 930 (0.24%) were called active. Inconclusive means that the source gave no clear call. Such entries were picked first, then a sample of the others. Calls follow the shape of the dose curve; as a rule, active = well fitted activation curve with a large enough effect; inconclusive = small, poorly fitted or top-dose-only effect; inactive = no such curve, though single readings can be large or run the other way. Potencies beside an inconclusive call are fits to weak or partial responses and may not hold up.
# Test: qHTS for Suppressors of FUS Proteinopathy: Primary screen using FUS-linked yeast assay; also: nearly all actives have a fitted effect of over 55% in size;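 as to growth rescue (activation): plate controls were DMSO vehicle for no effect and reference control for full effect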
# Settings: S. cerevisiae FUS-expressing, OD600, 24 h; Potency: growth rescue; growth rescue (activation): at 76.6 µM (top of the series)
# Method in brief: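 FUS-expressing yeast, raffinose-pregrown, induced in 2% galactose minimal medium at OD 0.005; compounds in a dilution series, 24hr at 30C. Growth restoration read as absorbance at 600 nm. CP55940 positive control, DMSO negative.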
# Potency is read from the fitted curve at half-maximal effect; tags tell the direction and shape of the fitted curve.
Compound,growth rescue (activation),Potency
CCc1cccc(NC(=O)c2cccc3c2C(=O)N(CC2CCCO2)C3)c1 (stereo not given),inactive: 33.2%,
Cc1ccc(CNC(=O)CN2CCC(C(N)=O)CC2)cc1,inactive: -5.1%,
O=C1CN(C(=S)NC(=O)c2ccccc2[N+](=O)[O-])CCN1,inactive: 8.88%,
CC(C)(C)NC(=O)NC(=O)CN1C(=O)NC(c2ccccc2)(c2ccccc2)C1=O,,"inconclusive: 10 µM [activator, partial curve, poor fit]"
O=c1cc(CN2CCN(c3ccccc3)CC2)nc2scc(-c3ccccc3)n12,,"inconclusive: 15.8 µM [activator, partial curve, poor fit]"
O=c1cc(Nc2ccc3c(c2)OCCO3)[nH]c(=O)n1Cc1ccc(F)cc1,,"inconclusive: 50.1 µM [activator, single point]"
COc1ccc2c(c1)OC[C@H]1[C@H]2N2C(=O)CN(Cc3ccco3)C(=O)[C@@]2(C)[C@H]1c1ccccc1,,"inconclusive: 31.6 µM [activator, single point]"
CC(C)C(=O)N1CCN(c2nc(-c3ccccc3)c3c(c2C#N)CCCC3)CC1,,"inconclusive: 39.8 µM [activator, partial curve, poor fit]"
O=C(c1ccc(C(F)(F)F)cc1)N1CCC(=O)N(C(COCc2ccccc2)Cc2ccccc2)CC1 (stereo not given),,"inconclusive: 22.4 µM [activator, single point]"
CCN(CC)C(=O)CSc1nc2ccc(NC(=O)CSc3nnc(N)s3)cc2s1,,active: 10 µM
COc1cc2oc(=O)cc(-c3ccc(-c4ccc(O)cc4)cc3)c2c(OC)c1OC,,"inconclusive: 28.2 µM [activator, single point]"
COC(=O)C1=C(O)/C(=C\c2cc(C)n(-c3ccc(F)cc3)c2C)N=C1C,,"inconclusive: 28.2 µM [activator, single point]"
COc1ccc(S(=O)(=O)Nc2ccccn2)cc1,inactive: -3.24%,
COc1ccc(S(=O)(=O)Nc2cccc3c2O[C@H](CN(C)S(=O)(=O)c2cccs2)[C@@H](C)CN([C@H](C)CO)C3=O)cc1,,"inconclusive: 22.4 µM [activator, partial curve]"
CCN1CCN(C(=O)c2cnn(-c3ccc(F)cc3)c2-n2cccc2)CC1,inactive: 0.884%,
O=C(NC(c1ccccc1)c1ccc2ccccc2n1)C1CCN(Cc2ccc(Oc3ccccc3)cc2)CC1 (stereo not given),,"inconclusive: 28.2 µM [activator, single point]"
COc1ccccc1NC(=O)c1c(Nc2ccccc2F)sc(C(=O)Nc2cccc(Cl)c2)c1N,,"inconclusive: 4.47 µM [activator, full curve]"
COc1ccc2c(/C=N/Nc3ccc(C(=O)O)cc3)c[nH]c2c1,,"inconclusive: 20 µM [activator, partial curve, poor fit]"
COc1cc(C=C(OC(C)=O)c2ccc3c(c2)OCO3)cc(OC)c1OC,,"inconclusive: 50.1 µM [activator, partial curve, poor fit]"
CC1CCCCN1C(=O)c1cccc(NC2=C(Cl)C(=O)N(Cc3ccccc3)C2=O)c1 (stereo not given),inactive: 14.4%,
CCn1cc(/C=C(\NC(=O)c2cc(OC)c(OC)c(OC)c2)C(=O)N2CCOCC2)c2ccccc21,,"inconclusive: 31.6 µM [activator, single point]"
CCc1ccc(C(=O)c2cn(CC(=O)NCCc3ccc(OC)c(OC)c3)c3nc(C)ccc3c2=O)cc1,,"inconclusive: 10 µM [activator, partial curve, poor fit]"

Compound,growth rescue (activation),Potency
COc1cccc(NC(=O)CSC2=Nc3ccccc3N=C(c3ccc(F)cc3)C2)c1,inactive: 40.5%,
CCc1ccc(-n2c(SCc3ccccc3F)nc3[nH]ncc3c2=O)cc1,,"inconclusive: 20 µM [activator, single point]"
COc1ccc(CCCNC(=O)C2Cc3c(-c4ccccc4)ccnc3O2)cc1 (stereo not given),inactive: 39.9%,
COc1ccc(-c2cc(C(=O)N3CCN(c4ncccn4)CC3)c3ccccc3n2)cc1,inactive: 20.5%,
CSc1ccc(Cn2c(C)c(C(=O)NCc3ccc(Cl)c(Cl)c3)sc2=O)cc1,,"inconclusive: 31.6 µM [activator, partial curve, poor fit]"
COc1cccc(NC(=O)CSC2=Nc3ccccc3C3=NC(CC(=O)NCCc4ccccc4)C(=O)N23)c1 (stereo not given),,"inconclusive: 50.1 µM [activator, single point]"
Cc1oc2ncn(CC(C)C)c(=O)c2c1C(=O)N1CCN(c2cccc(C(F)(F)F)c2)CC1,,"inconclusive: 28.2 µM [activator, single point]"
CCOc1cccc(-c2cc(C(=O)N/N=C/c3ccc(OC)c(CN4CCOCC4)c3)c3ccccc3n2)c1,inactive: 34.1%,
C=CCn1c(CSc2nc3ccccc3s2)nnc1SCC(=O)NCc1ccccc1,,"inconclusive: 11.2 µM [activator, single point]"
CC(C)Sc1nc(NCc2ccco2)c2c3c(sc2n1)COC(C)(C)C3,,"inconclusive: 50.1 µM [activator, single point]"
O=C(NCCc1csc(-c2ccccc2)n1)c1ccc(Br)o1,inactive: 1.67%,
Clc1ccccc1-c1nn2c(-c3ccncc3)nnc2s1,inactive: 15.5%,
COc1ccc(C(=O)NCCn2cc(SCC(=O)Nc3cccc(C)c3)c3ccccc32)cc1,,"inconclusive: 35.5 µM [activator, single point]"
NCCc1nnc(SCc2ccc(F)cc2)o1,,"inconclusive: 28.2 µM [activator, single point]"
O=C(NC1CCCCC1)c1cc2c(Cl)nc3ccccc3c2s1,inactive: -21.5%,
CCOc1ccc(NC(=O)C(NS(=O)(=O)c2cccc3nsnc23)c2ccccc2)cc1 (stereo not given),,"inconclusive: 31.6 µM [activator, single point]"
Cc1ccn2c(=O)cc(CSc3nnc(NC(=O)c4ccccc4Cl)s3)nc2c1,inactive: -18.5%,
O=C1NC[C@@H](c2ccccc2)OC(=O)[C@H](Cc2ccc(F)cc2)C/C=C\C[C@@H]1CC(=O)N(CCO)Cc1ccccc1,,"inconclusive: 15.8 µM [activator, partial curve]"
Cc1cc(C)c(CSc2nnc(C)n3c2cc2occc23)c(C)c1,,"inconclusive: 50.1 µM [activator, single point]"
COc1ccc(-n2c(Cc3cccn3C)nnc2SCC(=O)Nc2ccc(C)cc2C)cc1,,"inconclusive: 25.1 µM [activator, single point]"
COc1cc2cc(CN(Cc3nnnn3Cc3ccco3)C3CCCCC3)c(=O)[nH]c2cc1OC,,"inconclusive: 39.8 µM [activator, partial curve, poor fit]"
O=C(C1=C(O)C(=O)N(CCN2CCOCC2)C1c1cccs1)c1cc2ccccc2o1 (stereo not given),inactive: 2.06%,

Compound,growth rescue (activation),Potency
COc1ccccc1Cc1c(-c2ccc(OC)c(OC)c2)nc2c3ccccc3ccn12,,"inconclusive: 20 µM [activator, partial curve]"
c1ccc(-c2nc(-c3ccco3)n3ccccc23)cc1,inactive: 12.9%,
Cc1c(N=N/C(C(=O)Nc2ccccc2)=C(/O)c2ccccc2)c(=O)n(-c2ccccc2)n1C,inactive: 36.3%,
COc1ccc(CC(=O)Nc2cccc(-c3csc(C)n3)c2)cc1,,"inconclusive: 50.1 µM [activator, single point]"
CCCNC(=O)C1(C)CCN(C(=O)c2cccnc2Oc2ccccc2)C1 (stereo not given),inactive: -18.3%,
COc1ccc(C(=O)Cn2c(=O)c(CCC(=O)O)nn3c4ccccc4nc23)cc1OC,,"inconclusive: 50.1 µM [activator, single point]"
CCc1ccccc1NC(=O)CNC(=O)c1cc(C2CC2)nc2c1cnn2C(C)C,,"inconclusive: 22.4 µM [activator, partial curve, poor fit]"
Cc1sc2ncn(CC(=O)NCCCC(=O)NCc3ccc(F)cc3)c(=O)c2c1C,,"inconclusive: 15.8 µM [activator, partial curve, poor fit]"
COc1ccc(C/C(=N\OC(C)=O)c2ccc(OC)cc2)cc1,inactive: 12.7%,
Cc1ccc(/C=C/c2ccc(=O)n(Cc3ccccc3Cl)n2)cc1,inactive: 5.29%,
CCOc1cc(C(=S)N2CCOCC2)cc(Br)c1OS(=O)(=O)c1ccccc1,,"inconclusive: 39.8 µM [activator, single point]"
CCOc1cc(-c2ccc(OC(=O)c3ccccc3F)cc2)cc(=O)c2c(C)oc(C)c12,,"inconclusive: 35.5 µM [activator, single point]"
O=C(COC(=O)Cc1ccc(S(=O)(=O)N2CCOCC2)s1)NCc1ccc(Cl)cc1,,"inconclusive: 44.7 µM [activator, single point]"
O=C(NCc1ccc(F)cc1)c1ccc(CSCc2cccc(Cl)c2)o1,,"inconclusive: 28.2 µM [activator, single point]"
Cc1ccc(N2CC(NC(=O)/C=C\c3ccc4c(c3)OCO4)CC2=O)cc1C (stereo not given),inactive: 40.5%,
COc1ccc(-n2c(/C=C/c3ccccc3F)nc3cc(OC)c(OC)cc3c2=O)cc1Cl,,"inconclusive: 31.6 µM [activator, partial curve, poor fit]"
COC(=O)c1scc(-c2ccccc2)c1S(=O)(=O)Nc1ccccc1,,"inconclusive: 17.8 µM [activator, partial curve, poor fit]"
O=C(c1ccc(CSc2ccccc2)cc1)N1CCN(c2ccccc2)CC1,,"inconclusive: 7.94 µM [activator, partial curve]"
Cc1ccc(S(=O)(=O)N2CC3(O)CN(C(=O)OC(C)C)N(C(=O)OC(C)C)CC3(OC(=O)NCc3ccccc3F)C2)cc1 (stereo not given),,"inconclusive: 35.5 µM [activator, single point]"
C#CCNC(=O)CSCc1nc(-c2ccc(OCC)cc2)oc1C,inactive: -1.4%,
CCOC(=O)[C@H]1[C@H]2COc3cc(OC)ccc3[C@@H]2N2C(=O)c3c(C)cc(C)cc3NC(=O)[C@@]12C,,"inconclusive: 39.8 µM [activator, single point]"
